Assay results reported in the supplement of paper PMC12217912.
Some of the results follow. Sequences were assembled here from the parent chain. Values near 0.05 are background.

B1: TEV protease; numbered along this chain (parent)
chain: MGESLFKGPRDYNPISSSICHLTNESDGHTTSLYGIGFGPFIITNKHLFRRNNGTLVVQSLHGVFKVKDTTTLQQHLVDGRDMIIIRMPKDFPPFPQKLKFREPQREERICLVTTNFQTKSMSSMVSDTSCTFPSGDGIFWKHWIQTKDGQCGSPLVSTRDGFIVGIHSASNFTNTNNYFTSVPKNFMELLTNQEAQQWVSGWRLNADSVLWGGHKVFMVKPEEPFQPVKEATQL

Variants of: B1
Assay: raw area under fraction-flipped curve 0-4 h after induction (AUC4h, not background-subtracted), DNA-recorder readout of cleavage of the substrate (dimensionless); higher = more cleavage of the substrate by the protease variant
Conditions: temperature: 34 °C; time window: 0-4 h after rhamnose induction
Method: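 In vivo DNA recorder in E. coli TOP10(DE3) ΔrhaA at 34 °C. Each TEVp single-site mutant (parent TEVp 0) is paired with a single-site variant of the 7-mer TEVs (canonical ENLYFQ|S). The substrate sits between flexible linkers in a Bxb1-sfGFP-TEVs-SsrA fusion, so cleavage stabilises Bxb1 and speeds flipping of a recombination array, read by NGS. The value is the raw area under the fraction-flipped curve over 0-4 h after rhamnose induction (AUC4h), with ≥20 reads per time point. It is not background-subtracted; inactive controls average about 0.047.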
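Further: Bxb1 expression induced with 0.2% (w/v) L-rhamnose at OD600 near 0.5, cultures sampled hourly, flipped fraction per protease–substrate barcode pair counted by paired-end Illumina sequencing.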

Variant | area with substrate ENAYFQS | area with substrate ENCYFQS | area with substrate ENEYFQS | area with substrate ENFYFQS | area with substrate ENGYFQS | area with substrate ENHYFQS | area with substrate ENKYFQS | area with substrate ENMYFQS | area with substrate ENNYFQS | area with substrate ENPYFQS | area with substrate ENQYFQS | area with substrate ENSYFQS | area with substrate ENTYFQS | area with substrate ENVYFQS | area with substrate ENYYFQS | area with substrate ENDYFQS | area with substrate ENRYFQS | area with substrate ENWYFQS | area with substrate ENIYFQS
G153P | 0.0408 | 0.0506 | 0.0517 | 0.0596 | 0.0399 | 0.0423 | 0.0283 | 0.0372 | 0.0432 | 0.0321 | 0.0547 | 0.0424 | 0.048 | 0.0465 | 0.0538 |  |  |  | 
P155N | 0.0781 | 0.0561 | 0.0431 | 0.0419 | 0.0535 | 0.0465 | 0.0414 | 0.0841 | 0.0644 | 0.0404 | 0.0523 | 0.0629 |  | 0.0499 |  | 0.0433 | 0.0347 | 0.0426 | 
P155V | 0.0492 | 0.0632 | 0.0656 | 0.0596 | 0.0668 |  | 0.0463 |  | 0.054 |  | 0.0606 | 0.0451 |  | 0.0944 | 0.0533 | 0.0531 | 0.0633 |  | 0.0876
P155H | 0.034 | 0.0578 | 0.0516 | 0.0576 | 0.0378 |  |  |  |  |  | 0.0321 | 0.0596 |  | 0.0596 |  | 0.0494 | 0.0635 | 0.0535 | 0.0478
H143D | 0.0167 |  | 0.0617 |  |  |  | 0.0627 |  |  |  | 0.0609 | 0.0587 | 0.0598 | 0.0446 |  | 0.0529 | 0.0491 |  | 
K148W | 0.0627 | 0.0593 | 0.0556 | 0.0985 | 0.0633 | 0.0635 | 0.0656 |  | 0.0638 | 0.0458 | 0.0523 | 0.0675 | 0.0655 | 0.0499 | 0.0687 | 0.0617 | 0.0667 | 0.0532 | 0.0976
W141R | 0.0405 | 0.0625 | 0.0623 |  |  | 0.0533 | 0.0502 |  | 0.0539 | 0.0601 | 0.0531 | 0.0617 |  | 0.0491 |  | 0.0563 |  | 0.052 | 
W141C | 0.0559 | 0.0604 | 0.0515 |  | 0.0581 | 0.0425 |  |  | 0.0468 |  | 0.0479 | 0.0563 | 0.0638 | 0.0615 |  | 0.0509 | 0.0396 | 0.0631 | 
Q151G | 0.0481 | 0.0434 | 0.0531 |  |  | 0.0484 |  | 0.0598 |  | 0.0521 | 0.0602 | 0.0667 | 0.0529 |  |  | 0.0664 | 0.0772 | 0.0055 | 0.0781
G162A | 0.0536 |  |  |  | 0.0766 | 0.0756 |  |  | 0.0733 |  |  | 0.0545 | 0.0644 | 0.0761 |  | 0.0326 | 0.0348 | 0.0591 | 
Y179K | 0.061 | 0.0476 | 0.0693 |  |  |  | 0.0668 |  | 0.0741 | 0.0635 | 0.0532 | 0.051 |  |  |  |  | 0.0536 |  | 
D161R | 0.0532 | 0.0476 | 0.0562 |  | 0.0522 | 0.0371 |  | 0.0674 | 0.0448 |  | 0.0586 | 0.0579 | 0.0536 | 0.0558 |  | 0.0715 |  | 0.0428 | 0.0597
D161Y | 0.0434 | 0.0571 | 0.0282 |  |  | 0.028 | 0.0502 |  | 0.0559 | 0.0614 | 0.0647 | 0.0664 |  | 0.0508 | 0.0431 |  | 0.0472 | 0.0007 | 
